These results are taken from PubChem BioAssay (NCI).

For this assay, the system named is NCI-H322M lung. Briefly: NCI tumour cell line growth inhibition, 48 h.

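Briefly, cells in 96-well plates were exposed to five compound concentrations for 48 h, and endpoints were estimated by linear interpolation. The concentration for 50% growth inhibition is given as GI50. At the TGI there is no net growth.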 A value given as a limit tells only on which side of the number the result lay.

Consider `O=C(NO)c1ccc(Cn2ccc3c(Nc4ccccc4)ncnc32)cc1`, for which the GI50 was 5.45 µM and the TGI is above 29 µM.
